Experimental data published in PubChem BioAssay (NCATS).
Several values for one entry are separate records, joined by “and”; a condition that tells them apart may be missing. Equal entries are not always repeated. The inconclusive results got no clear call from the source; some entries with a clear call stand among them for comparison. For some assays here: A potency beside an inconclusive call is a rough fit, not a confirmed value. Some compounds were tested as several samples or in several runs, with calls that do not always agree. Activity calls are given as the source filed them. Calls come from the whole dose curve; as a rule, active = well fitted inhibition curve with a large enough effect; inconclusive = small, poorly fitted or top-dose-only effect; inactive = flat fitted curve, though single readings scatter.

How the values were obtained:
HaCat = assay: Cytotoxic Profiling of Annotated Libraries Using Quantitative High-Throughput Screening (AID 1296008); settings: Five cell lines viability, CellTiter-Glo ATP luminescence, 48-72 h; max response: active compounds read low; note: nearly all actives have a fitted effect of over 60% in size; for max response: % is set by controls: 0 for no effect and ±100 for the full control effect
How it was run: (§1)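 Cytotoxicity was measured as CellTiter-Glo ATP luminescence, read after 10 min at room temperature. Compound treatment of the cells lasted 48 or 72 hr at 37 degrees Celsius in a qHTS format.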

KB-3-1 = assay: as above; settings: Five cell lines viability, CellTiter-Glo ATP luminescence, 48-72 h; max response: active compounds read low
How it was run: as §1

3D7 = assay: qHTS profiling for inhibitors of Plasmodium falciparum proliferation (AID 504749); note: nearly all actives have a fitted effect of over 60% in size; settings: P. falciparum in erythrocytes, SYBR Green DNA, 72 h; series mostly up to 28.7 µM
How it was run: (§2)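 SYBR Green fluorescence of parasite DNA, read after lysis and overnight dark incubation, measured growth over 72 h in erythrocyte culture at 0.3% parasitemia and 2.5% hematocrit. Data normalised to DMSO and 0.29 uM artemisinin, with plate-drift correction.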

AA1029 = assay: as above; settings: P. falciparum in erythrocytes, SYBR Green DNA, 72 h; series mostly up to 28.7 µM
How it was run: as §2

NIH3T3 = assay: Cytotoxic Profiling of Annotated Libraries Using Quantitative High-Throughput Screening (AID 1296008); settings: Five cell lines viability, CellTiter-Glo ATP luminescence, 48-72 h; max response: active compounds read low; note: nearly all actives have a fitted effect of over 60% in size; for max response: % is set by controls: 0 for no effect and ±100 for the full control effect
How it was run: as §1

[1] = Drug repurposing screens with cells derived from glioblastoma tumor samples (AID 1345199); settings: GBM patient neurospheres viability, ATP luminescence, 48 h; Potency: tumour line A unless noted; series mostly up to 46 µM; note: nearly all actives have a fitted effect of over 40% in size
How it was run: (§3)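 Primary testing used CD133+ neurospheres from four GBM patients, seven concentrations, 48 h exposure and ATP-based viability; confirmation added three slower-growing patient lines.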

astro = assay: as above; settings: viability, ATP luminescence, 48 h; activity, negative = cell killing: at 45.9 µM (top of the series) unless noted
How it was run: as §3
Potency is the fitted concentration of half-maximal effect; tags give direction and shape of the fitted curve.

SMILES: NC1=NC(=O)N2CC12 (centres undefined)
- outcome (HaCat): inactive
- max response (KB-3-1): inactive: 6.64%
- Potency (3D7): inconclusive: 14.1 µM [inhibitor, single point]
- Potency (AA1029): inconclusive: 12.6 µM [inhibitor, single point]

SMILES: COC1CCCC(C)OC(=O)Cc2cc(O)cc(O)c2C(=O)C1 (centres undefined)
- Potency (HaCat): inconclusive: 20.2 µM [inhibitor, single point]
- Potency (NIH3T3): inconclusive: 14.3 µM [inhibitor, partial curve]

SMILES: Clc1ccc(COC(Cn2ccnc2)c2ccc(Cl)cc2Cl)cc1 (centres undefined)
- Potency (HaCat): inconclusive: 29.9 µM [inhibitor, single point]
- Potency (NIH3T3): inconclusive: 21.1 µM [inhibitor, single point] and inconclusive: 26.4 µM [inhibitor, single point]
- Potency [1]: active: 2.24 µM
- Potency (astro): inconclusive: 22.4 µM [inhibitor, single point]
- Potency (AA1029): active: 4.47 µM

SMILES: C[C@@H](CN1CCC2(CC1)C(=O)NCN2c1cccc(F)c1)NC(=O)c1ccc(Br)cc1
- Potency (HaCat): inconclusive: 8.2 µM [inhibitor, partial curve, poor fit]
- Potency (NIH3T3): inconclusive: 29.1 µM [inhibitor, single point]

SMILES: CC[C@@]1(O)C(=O)OCc2c1cc1n(c2=O)Cc2cc3c(OC)cccc3nc2-1
- Potency (HaCat): active: 0.114 µM
- Potency (NIH3T3): inconclusive: 0.453 µM [inhibitor, full curve]

SMILES: COc1cc(CC(C)N)c(OC)cc1Br (centres undefined)
- max response (HaCat): inactive: -6.81%
- Potency (NIH3T3): inconclusive: 79.9 µM [inhibitor, single point]
- Potency [1]: active: 35.5 µM and active: 12.6 µM

SMILES: CC(=O)OC[C@]12C[C@H](OC(C)=O)C(C)=C[C@H]1O[C@@H]1[C@H](O)[C@@H](O)[C@@]2(C)[C@]12CO2
- Potency (HaCat): active: 1.28 µM
- Potency (NIH3T3): active: 1.01 µM

SMILES: Clc1ccc(CSC(Cn2ccnc2)c2ccc(Cl)cc2Cl)cc1 (centres undefined)
- Potency (HaCat): inconclusive: 29.9 µM [inhibitor, single point]
- Potency (NIH3T3): inconclusive: 33.5 µM [inhibitor, single point]
- Potency (astro): inconclusive: 11.2 µM [inhibitor, partial curve]

SMILES: C[C@@H]1O[C@@H](O[C@H]2CC[C@@]3(C)C(CC[C@@H]4C3CC[C@]3(C)[C@@H](C5=CC(=O)OC5)CC[C@]43O)C2)[C@H](O[C@@H]2O[C@H](CO)[C@@H](O)[C@H](O)[C@H]2O)[C@H](O)[C@H]1O (some centres undefined)
- Potency (HaCat): active: 2.17 µM
- max response (NIH3T3): inactive: -13.4%

SMILES: CO[C@H]1[C@H](O)[C@H](O[C@H]2CC[C@]3(C=O)C4CC[C@]5(C)[C@H](C6=CC(=O)OC6)CC[C@]5(O)C4CC[C@@H]3C2)O[C@@H](C)[C@@H]1O (some centres undefined)
- Potency (HaCat): active: 0.126 µM
- max response (NIH3T3): inactive: -5%

SMILES: C[C@@H]1O[C@@H](O[C@@H]2C=C3CC[C@@H]4[C@@H](CC[C@]5(C)[C@H](c6ccc(=O)oc6)CC[C@@]45O)[C@@]3(C)CC2)[C@H](O)[C@H](O)[C@H]1O
- Potency (HaCat): active: 0.0469 µM
- Potency (NIH3T3): active: 3.72 µM

SMILES: S=C(SSC(=S)N1CCCCC1)N1CCCCC1
- Potency (HaCat): inconclusive: 33.5 µM [inhibitor, single point]
- Potency (NIH3T3): inconclusive: 1.19 µM [inhibitor, full curve, poor fit]
- Potency [1]: inconclusive: 17.8 µM [inhibitor, partial curve]

SMILES: COc1ccc2c3c1O[C@H]1[C@@H](O)C=C[C@H]4[C@@H](C2)N(C)CC[C@@]341
- Potency (HaCat): inconclusive: 42.4 µM [inhibitor, single point]
- Potency (NIH3T3): inconclusive: 67.2 µM [inhibitor, single point]
- Potency [1]: active: 44.7 µM

SMILES: C[CH2][Hg][S]c1ccccc1C(=O)O
- Potency (HaCat): inconclusive: 33.5 µM [inhibitor, single point]
- Potency (KB-3-1): active: 7.31 µM
- Potency (3D7): active: 1.78 µM

SMILES: CN(C)[C@@H]1C(=O)C(C(N)=O)=C(O)[C@@]2(O)C(=O)C3=C(O)c4c(O)ccc(Cl)c4[C@@](C)(O)C3C[C@@H]12 (some centres undefined)
- Potency (HaCat): inconclusive: 0.231 µM [inhibitor, full curve, poor fit]
- outcome (NIH3T3): inactive

SMILES: CCC1(c2cnc[nH]2)Cc2ccccc2C1
- Potency (HaCat): inconclusive: 4.22 µM [inhibitor, partial curve, poor fit]
- outcome (NIH3T3): inactive

SMILES: CCC(C)(O)C1(C(=O)O)COC(=O)C1 (centres undefined)
- outcome (HaCat): inactive
- max response (NIH3T3): inactive: -1.83%
